Out of some 45,000 compounds screened, about 65 (0.1%) were called active. Calls follow the shape of the dose curve; as a rule, active = well fitted activation curve with a large enough effect; inconclusive = small, poorly fitted or top-dose-only effect; inactive = no such curve, though single readings can be large or run the other way. Some of the results follow.
Target: Galactocerebrosidase (Homo sapiens) (UniProt P54803)
Test: A Novel Cell-Based Assay to Identify Small Molecules for B -Galactocerebrosidase; also: 0% is about no effect; nearly all actives have a fitted effect of over 65% in size
Settings: 145M-Twi-hGALC-G270D cells (Twitcher mouse brain line with human GALC G270D), HMU-beta-Gal fluorescence, 48 h; series mostly up to 57.5 µM; activation: at the top concentration
How it was run: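 Brain-derived Twitcher mouse 145M-Twi cells stably expressing human GALC-G270D or wild-type GALC, treated live, then residual GALC activity read by fluorescence of HMU-b-Gal substrate (0.1 mM final) in citrate-phosphate buffer pH 5.2 with sodium taurocholate. Signal increase indicates enhancement.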

Chain of UniProt P54803 (P54803 whole entry, looked up): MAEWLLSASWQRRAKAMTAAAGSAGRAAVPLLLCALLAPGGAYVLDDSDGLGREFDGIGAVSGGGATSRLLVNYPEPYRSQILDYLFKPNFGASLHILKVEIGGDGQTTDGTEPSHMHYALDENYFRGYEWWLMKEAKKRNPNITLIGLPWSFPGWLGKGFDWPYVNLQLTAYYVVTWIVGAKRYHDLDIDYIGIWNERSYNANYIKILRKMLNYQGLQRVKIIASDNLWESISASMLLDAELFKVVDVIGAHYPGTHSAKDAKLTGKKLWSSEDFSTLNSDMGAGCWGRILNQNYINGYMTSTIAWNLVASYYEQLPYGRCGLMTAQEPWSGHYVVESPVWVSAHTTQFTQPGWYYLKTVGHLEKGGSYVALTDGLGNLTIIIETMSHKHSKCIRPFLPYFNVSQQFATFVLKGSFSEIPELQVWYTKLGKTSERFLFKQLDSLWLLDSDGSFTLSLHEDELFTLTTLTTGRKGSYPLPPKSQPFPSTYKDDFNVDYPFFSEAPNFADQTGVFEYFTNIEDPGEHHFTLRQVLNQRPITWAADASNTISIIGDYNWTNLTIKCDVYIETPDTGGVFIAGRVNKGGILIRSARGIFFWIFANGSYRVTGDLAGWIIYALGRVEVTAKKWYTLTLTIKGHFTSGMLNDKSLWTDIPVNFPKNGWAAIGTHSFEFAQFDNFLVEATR

activation, inactive:
CCOCCc1nn2c(=O)cc(COC(=O)CNC(=O)c3cccc(C)c3)nc2s1 -12.9%
O=C(COc1ccc(Cl)cc1)Nc1nnc(S(=O)(=O)N2CCc3ccccc32)s1 -8.54%
CCN(C(=O)CSc1nc2ncccc2[nH]1)c1ccc(C(C)C)cc1 -12.2%
COc1cccc(-c2ncnn2-c2sc3c(c2C#N)CCCCC3)c1OC -14.4%
Cc1ccc(CN(C(=O)COc2ccc([N+](=O)[O-])cc2)c2ccccn2)cc1 -23.7%
CCN(CC)CCCNC(=O)c1cn(C)c2ccc(S(=O)(=O)N(C)C3CCCCC3)cc2c1=O -20.7%
CCN(CC)CCCNC(=O)c1cnc(SC)nc1-c1ccccc1 -12.7%
CC(C)c1ccc(NC(=O)Cn2cc(S(=O)(=O)N3CCN(c4ccccc4F)CC3)c3ccccc3c2=O)cc1 -0.22%
COc1ccccc1NC(=O)c1c(NCc2ccc(OC)c(OC)c2OC)sc2c1CCC2 -6.57%
CCOC(=O)c1c(C)[nH]c(C)c1S(=O)(=O)N(C)CC(=O)N1CCN(c2ccccc2)CC1 -11.6%
CCOc1ccc(NC(=O)c2cnc(N3CCCC3)nc2C)cc1 -0.658%
COc1ccc(CNc2nc3c(-c4cccc(C)c4)nnn3c3ccccc23)cc1 -5.36%
CCOc1ccc(CCNC(=O)c2cn(C)c3ccc(S(=O)(=O)N4CCCCCC4)cc3c2=O)cc1OCC -4.5%
Cc1nn(CC(=O)N2CCC(C)CC2)c(=O)c2cc3sccc3n12 -17.5%
Cc1c(C(=O)NCC(c2ccc(Cl)cc2)N2CCOCC2)oc2ccccc12 (configuration not stated) -3.07%
CCOc1ccc(N2CC(c3nc4ccccc4n3CCCOc3ccccc3)CC2=O)cc1 (configuration not stated) -21.4%
CCCCOC(=O)c1ccc(NC(=O)c2cc3c(=O)n4cccc(C)c4nc3s2)cc1 -10.3%
CCCNC(=O)CCc1nnc2ccc(N3CCN(c4cccc(OC)c4)CC3)nn12 0.28%
CCCCN(C)CCNC(=O)c1c2c(nc3ccccc13)C(=O)N(C1CCCCC1)C2 -15.4%
Cc1cc(Cl)ccc1OCc1nc(-c2ccc(-n3cccc3)cc2)no1 -8%
OC(Cn1cncn1)(Cn1cncn1)c1ccc(F)cc1F -20.7%
CCC(=O)N1CCc2cc(Br)cc(S(=O)(=O)CCC(=O)NCCc3cccc(C)c3)c21 -3.22%
Cc1ccc(-n2c(=O)c3cccnc3n2CC(=O)Nc2ccc(Br)cc2)cc1C -8.59%
Cc1ccc(NC(=O)CCn2c(=O)c3cccn3c3ccccc32)cc1C -0.317%
Cc1ccc(CN2CCC(CNC(=O)Nc3ccc(Cl)cc3)C2)cc1 (configuration not stated) -13.1%
CC(C)(C)OC(=O)N1CCC(c2c(C(=O)NCCN3CCc4ccccc4C3)cnn2-c2ccc(F)cc2F)CC1 -2.41%
CCOC(=O)N1CCc2c(sc(NCc3sccc3C)c2C(=O)Nc2ccc(OC)cc2OC)C1 -2.25%
Cn1ncc2c(N3CCN(c4cccc(Cl)c4)CC3)ncnc21 -1.26%
Cc1cc(C)cc(NC(=O)C(Cc2ccccc2)NS(=O)(=O)c2ccc3c(c2)c(=O)n(C)c(=O)n3C)c1 (configuration not stated) 2.14%
CC(Oc1ccc(F)cc1)C(=O)N1CCC(c2nc3ccccc3s2)CC1 (configuration not stated) -7.89%
CCOc1ccc(Oc2nc(NCC(C)C)nc(N3CCOCC3)n2)nn1 -16.6%
COc1ccccc1N1CCN(C(=O)c2nc(SC)ncc2Cl)CC1 -9.65%
COc1ccc(C)cc1NC(=O)CCS(=O)(=O)c1cc2c3c(c1)CCN3C(=O)CC2 -10.2%
O=C(Nc1cc(C(F)(F)F)ccc1Cl)c1nc2ccccc2nc1N1CCCCC1 -13%
O=C(CSc1nncn2c1cc1sccc12)Nc1ccc(Br)cc1F -11.1%
CCOC(=O)c1c(C)oc2nc(C)nc(NCc3ccc(OC)cc3OC)c12 -8.12%
CCc1ccccc1NC(=O)c1sc2nc3c(cc2c1N)CN(Cc1ccccc1)CC3 1.8%
COC(=O)c1cccnc1-n1c(=O)c2cccnc2n(CC(=O)Nc2ccccc2F)c1=O -21.9%
Clc1cccc(-n2ncc3c(N4CCC(Cc5ccccc5)CC4)ncnc32)c1 -16.4%
Cc1cc(C)cc(NC(=O)C(=O)NCC(c2cccnc2)N2CCc3ccccc3C2)c1 (configuration not stated) -17.2%
CCCCNC(=O)C1CCC(Cn2c(=O)c3sccc3n(CC(=O)N3CCCC3)c2=O)CC1 (configuration not stated) -24.5%
CCc1ccc(NC(=O)CCn2nc(C)c(S(=O)(=O)N3CCCCC3)c2C)cc1 -26.2%
O=C(Cn1c(=O)nc(-c2ccccc2)c2ccccc21)NCc1ccc(Cl)cc1 -5.56%
COc1cc(C2C(C(=O)Nc3ccccc3C)=C(C)Nc3ncnn32)ccc1OCC(N)=O (configuration not stated) -1.49%
CCOc1ccccc1NC(=O)C1CCN(S(=O)(=O)c2ccc3c(c2)CC(C)N3C(C)=O)CC1 (configuration not stated) -10.1%
COc1cccc(N2CCN(S(=O)(=O)c3ccc(-n4cnnn4)cc3)CC2)c1 -15.7%
CCOc1ccc(Cn2c(CNS(=O)(=O)c3ccc(Cl)s3)nc3cccnc32)cc1 2.47%
CCOC(=O)c1ccccc1NC(=O)Cn1c(=O)n(-c2cccc(C)c2)c(=O)c2c1c1cc(C)ccc1n2C -11.9%
COc1ccc2c(C)cc(SCC(=O)Nc3nsc(-c4ccccc4C)n3)nc2c1 -7.06%
O=C(NCc1ccc(Cl)cc1)C(=O)NCC(c1cccs1)S(=O)(=O)c1cccs1 (configuration not stated) -6.75%
Nc1ccc(N2CCN(c3ncc(C(F)(F)F)cc3Cl)CC2)c(C(F)(F)F)c1 -16.6%
COc1ccc(Nc2cc(C(=O)NCCCN3CCN(c4ccc(OC)cc4)CC3)c3ccccc3n2)cc1 -8.82%
Cc1oc(C)c2c(=O)cc(-c3ccc4c(c3)OCO4)cc(OC(=O)c3cccc(Br)c3)c12 -7.01%
O=C(CCn1cnnn1)Nc1ccc(F)cc1 -10.4%
CN(c1ccccc1)S(=O)(=O)c1ccc(NC(=O)c2cc(=O)c3ccccc3o2)cc1 3.87%
Cc1ccc(NC(=O)CSc2ccc(-c3cccs3)nn2)cc1Cl -2.83%
COCC(=O)NCc1nc2cccnc2n1Cc1ccc(F)cc1 -10.2%
Cc1cc(NC(=O)c2cccc(Cl)c2)ccc1-c1cc2ccccc2oc1=O -25.3%
Cc1noc(-c2ccc(N3CCCCC3)c([N+](=O)[O-])c2)n1 -17.4%
Cc1ccccc1CCNC(=O)c1ccc2c(c1)nc1n2CCC(C)C1 (configuration not stated) -16.9%
COc1ccc(-n2ncc(C(=O)NCCc3ccsc3)c2C2CCN(C(=O)OC(C)(C)C)CC2)cc1 -7.17%
Cc1ccc(Cn2c(CNS(=O)(=O)c3ccc(F)c(Cl)c3)nc3cccnc32)cc1 21.6%
Cc1cn[nH]c1 -31.5%
O=C1CS(=O)(=O)C2(C(=O)N(Cc3ccccc3)c3ccccc32)N1c1ccccc1 (configuration not stated) -25.4%
O=C(C1CCN(c2ncnc3c2nc2n3CCCCC2)CC1)N1CCN(c2cccc(Cl)c2)CC1 -13.7%
COc1ccc(OC)c(CNC(=O)Cc2ccc(NC(=O)N3CCSc4ncccc43)cc2)c1 -36.8%
COc1cc2c(cc1OC)C(COc1ccccc1OC)N(C(=O)COc1ccc(Cl)cc1)CC2 (configuration not stated) -18.6%
Cc1ccc(CCNC(=O)c2ccc3c(c2)nc2n3CCC(C)C2)cc1 (configuration not stated) -6.27%
COc1ccc(-c2noc(-c3ccc(N4CCN(c5ccccc5)CC4)c([N+](=O)[O-])c3)n2)cc1OC -13.1%
CCOC(=O)C1(C)C=C(Nc2cccc(C(=O)O)c2)C(=O)N1c1cccc(C(=O)O)c1 (configuration not stated) -10.2%
Cc1cc(F)ccc1NS(=O)(=O)c1ccc(-n2cccn2)cc1 -8.62%
Cc1ccc(CNS(=O)(=O)c2ccc3[nH]c4c(c3c2)CCCC4)cc1 -8.5%
CCCCc1nn2c(=O)cc(COC(=O)c3ccc(NC(=O)c4ccccc4C)cc3)nc2s1 -12.8%
Cc1cc(C)n(CCc2nc3c4ccccc4nc(N4CCN(c5ccccc5)CC4)n3n2)n1 0.85%
O=C(Nc1cccc(C(=O)OCc2cc(=O)n3nc(C4CC4)sc3n2)c1)c1cccc(F)c1 -15.1%
Cc1ccc(N(CC(=O)N2CCN(c3ccccc3F)CC2)S(=O)(=O)c2c(C)noc2C)cc1 -18.9%
Cc1ccc(CCNC(=O)C(NS(=O)(=O)c2ccc3c(c2)oc(=O)n3C)C(C)C)cc1 (configuration not stated) -1.73%
CCOC(=O)CSc1ccc2nnc(CCNS(=O)(=O)c3ccccc3)n2n1 -4.11%
COc1ccc(NC(=O)CSc2nncn3c2cc2oc(C)cc23)cc1OC -23.3%
Cc1ccc(N(CC(=O)Nc2cccc(F)c2)S(=O)(=O)c2cccs2)cc1 -16.8%
CCOc1ccc(-n2c(SCC(=O)NCC3CCCO3)nc3c([nH]c4ccccc43)c2=O)cc1 (configuration not stated) -9.62%
COc1cc2c(cc1OC)C(COc1ccc3c(C)cc(=O)oc3c1)N(C(=O)c1cccc(C)c1)CC2 (configuration not stated) -15.3%
COc1ccc(Cn2ccn(Cc3cccc(C)c3)c(=O)c2=O)cc1 -7.01%
Cn1c(=O)c(=O)n(C)c2cc(S(=O)(=O)N3CCCC3C(=O)Nc3ccccc3F)ccc21 (configuration not stated) -2.1%
O=C(NCCc1ccccc1)c1ccc2c(c1)N(Cc1c(F)cccc1Cl)C(=O)CS2 6.14%
COCCCNC(=O)CCC(=O)N1Cc2cccc(OC)c2Oc2ncccc21 -8.86%
CNC(=O)C1CCC(Cn2c(=O)c3sccc3n(Cc3ccc(F)cc3)c2=O)CC1 (configuration not stated) -7.76%
CCc1ccc(NC(=O)CSc2nccn2-c2ccc(OC)cc2)cc1 -6.99%
CC(=O)N1CCCc2cc(S(=O)(=O)N3CCC(C(=O)NC4CCC(C)CC4)CC3)ccc21 (configuration not stated) -18.1%
CC1(C(=O)Nc2cccc(Br)c2)Cc2ccccc2C(=O)O1 (configuration not stated) -7.21%
Cc1ccccc1OCCSc1nc2ccc(NC(=O)c3ccccc3)cc2s1 -16.7%
Cc1nc(-c2cccc(NC(=O)Nc3ccc([N+](=O)[O-])cc3)c2)no1 -28.1%
NC(N)=NS(=O)(=O)c1ccc(N)cc1 -6.48%
COC(=O)c1ccccc1NC(=O)c1ncoc1-c1ccco1 -10.6%
CCn1c(C(=O)NCc2ccccc2C)cc2oc3ccccc3c21 -8.22%
CCCc1cc(=O)oc2c3c(ccc12)OCN(Cc1ccc(OC)cc1)C3 -20.1%
COc1cccc2c1cc1c(=O)n(CC(=O)NC3CCCCC3)nc(C)n12 -15.3%
